Experimental data as given in PubChem BioAssay AID463173 (ICCB-Longwood Screening Facility, Harvard Medical School, 2010).
Among all 52,000 compounds or so, about 4,300 (8.3%) were called active. Cut-off read from the data, not from the text of the source: active = survival mostly below about 52% (no sharp cut-off); inactive = mostly above about 56%. The list shows a part of the results.

System: DeltatarO mutant
Assay: S. aureus survival, RN4220 and DeltatarO strains – OD600, teichoic acid synthesis inhibitors, primary screen (AID 463173)
Settings: S. aureus RN4220 wild type/DeltatarO growth, OD600, 18 h, active compounds read low, screened at 18.75 µg/mL (by protocol)

Row | SMILES | survival
1 | O=C(COc1ccc(F)cc1)NCc1ccc2c(c1)CCN2C(=O)c1ccccc1 | inactive: 81%
2 | CNC(=O)c1ccc2c(c1)N(Cc1ccccc1Cl)C(=O)c1ccccc1S2 | inactive: 75%
3 | O=C(CN(C1CCCCC1)S(=O)(=O)c1ccccc1)N1CCCCC1 | inactive: 104%
4 | O=C(Cn1c(=O)nc(-c2ccccc2F)c2cc(Cl)ccc21)NCCCc1ccccc1 | inactive: 83%
5 | Cc1cccc(NC(=O)c2sc3nc(-c4cc5ccc(O)cc5oc4=O)[nH]c(=O)c3c2C)c1 | inactive: 46%
6 | Cc1cc(C)cc(NC(=O)c2c(C)oc3nc(C)nc(N4CCCC4)c23)c1 | inactive: 55%
7 | CC(C)CCn1c(=O)c2cccnc2n(CC(=O)Nc2ccccc2F)c1=O | inactive: 82%
8 | Cn1c2ccccc2c2cnn(CC(=O)Nc3ccccc3F)c(=O)c21 | inactive: 111%
9 | CCOc1ccc(Nc2nn(-c3ccc(OC(F)(F)F)cc3)nc2C(C)=O)cc1 | inactive: 112%
10 | CCc1ccc(OCC(=O)Nc2ncn[nH]2)c(Br)c1 | inactive: 88%
11 | COc1cccc(-c2noc(-c3cc(C(C)C)[nH]n3)n2)c1OC | inactive: 73%
12 | COc1cccc(Cn2c(-c3nonc3NC(C)=O)nc3ccccc32)c1 | inactive: 70%
13 | CCC1CN(C(=O)N2CCC(C(=O)N3CCN(c4ccccc4F)CC3)CC2)c2ccccc2O1 (stereo not given) | inactive: 97%
14 | CCC(Sc1nc2ncccc2o1)C(=O)Nc1ccc(OC)c(OC)c1 (stereo not given) | inactive: 79%
15 | COc1ccc(C2CC(=O)c3cc(-c4nc(-c5cccc(Cl)c5)cs4)c(=O)[nH]c3C2)cc1 (stereo not given) | inactive: 94%
16 | CC(C)C(=O)Nc1sc2c(c1C(N)=O)CCCC2 | inactive: 77%
17 | Cc1ccc2c(=O)cc(C(=O)Nc3sc4c(c3C(=O)NCC3CCCO3)CCCC4)oc2c1 (stereo not given) | inactive: 71%
18 | O=S(=O)(c1ccc(Cl)cc1Cl)n1ccnc1 | inactive: 76%
19 | CSc1oc(-c2cccs2)nc1S(=O)(=O)c1ccc(Br)cc1 | inactive: 56%
20 | COc1ccc(N2CCN(Cc3nnc(-c4ccc5c(c4)OCO5)o3)CC2)cc1 | inactive: 88%
21 | CCc1cccc(C)c1Nc1c(-c2ccsc2)nc2ncccn12 | inactive: 67%
22 | Cc1ccc2c(c1)c1c3n2CCN(C(=O)c2cccc(C(F)(F)F)c2)C3CCC1 (stereo not given) | active: 14%
23 | COC(=O)CCC1(C(=O)O)CCOC(C)(C)C1 (stereo not given) | inactive: 72%

Row | SMILES | survival
24 | Cc1ccc(C)c(Cn2c3ccccc3c3cnn(CC(=O)NCCc4ccccc4)c(=O)c32)c1 | inactive: 73%
25 | Cc1ccc(-n2nc(C)c3nc(CCC(=O)Nc4cccc(F)c4)c(=O)n(C)c32)cc1 | active: -5%
26 | Cc1cccc(CNC(=O)CCCN2C(=O)CCn3nc(-c4cccn4C)cc32)c1 | inactive: 92%
27 | CCOc1c(Cl)cc(C(=O)N(Cc2ccc(N(C)C)cc2)Cc2ccco2)cc1Cl | inactive: 82%
28 | COc1ccc(CNC(=O)C2CCCN(c3nnc(C)c4c(C)n(-c5ccc(C)cc5)nc34)C2)cc1 (stereo not given) | inactive: 101%
29 | CCC(Sc1nnc(-c2ccc(OC)c(OC)c2)c(-c2ccc(OC)c(OC)c2)n1)C(=O)NC1CCCC1 (stereo not given) | inactive: 94%
30 | O=C(NCCc1ccccc1)c1ccc(Cn2c(SCc3ccccc3)nc3cccnc32)cc1 | inactive: 117%
31 | Cc1cccn2c(=O)cc(CSc3nnc(NC(=O)c4ccc(F)cc4)s3)nc12 | inactive: 83%
32 | Oc1ccc(Br)cc1C=Nc1cccc(-c2nc3ccccc3o2)c1 | inactive: 101%
33 | CCOc1ccc2nc(NCCNC(=O)NCc3ccccc3)c(C#N)cc2c1 | inactive: 98%
34 | CCCOc1ccc(Oc2nc(NCC(C)C)nc(N(C)C)n2)nn1 | inactive: 82%
35 | CCc1ccc(NC(=O)C(Cc2ccccc2)NS(=O)(=O)c2ccc3c(c2)c(=O)n(C)c(=O)n3C)cc1 (stereo not given) | active: 45%
36 | CNC(=O)c1cnc2sc(N3CCCCCC3)nn2c1=O | inactive: 115%
37 | COc1ccc(C(=O)Nc2nc3ccccc3n2CCOc2ccc(Cl)cc2)cc1 | active: -5%
38 | CCOc1ccc(N(CC)C(=O)CCc2nc(-c3ccccc3F)no2)cc1 | inactive: 46%
39 | Cc1ccc(NC(=O)Cn2nc3c(cc2=O)CCCC3)cc1Cl | inactive: 93%
40 | COc1cc(CNCCSc2nnnn2C)ccc1OCc1ccc(Cl)cc1Cl | active: 30%
41 | COc1ccc2nc(SC)nc(C)c2c1 | inactive: 67%
42 | CCN(C(=O)CSc1nc2ccccc2nc1Cc1ccc(F)cc1)c1cccc(C)c1 | inactive: 86%
43 | Cc1cccc(C)c1NC(=O)c1sc(-n2nc(C)c(Cc3ccc4c(c3)OCO4)c2C)nc1C | inactive: 97%
44 | CC1(C)Cc2ccccc2C(N/N=C/c2ccncc2)=N1 | inactive: 66%
45 | Clc1ccc(NCc2nc3ccccc3n2CCOc2ccccc2)cc1 | inactive: 50%
46 | COc1ccc(Cl)cc1NC(=O)Cn1c(=O)c2ccccc2n2nncc12 | inactive: 71%

Row | SMILES | survival
47 | O=C(O)c1ccc(OCOc2ccc(C(=O)O)c(C(=O)O)c2)cc1C(=O)O | inactive: 96%
48 | Cc1ccccc1C(=O)N1c2ncnn2C2(CCCCC2)[C@@H]2CCCC[C@@H]21 | inactive: 89%
49 | CCc1nc(-c2ccc(C)c(S(=O)(=O)N3CCN(c4ccc(C(C)=O)cc4)CC3)c2)no1 | inactive: 77%
50 | O=C(c1ccc2c(c1)OCCO2)C1CCCCC1 | inactive: 83%
51 | O=C(NCCn1cc(SCc2ccc(F)cc2)c2ccccc21)c1cccs1 | inactive: 50%
52 | CCn1cc(C(=O)N2CCN(c3cc(Cl)ccc3C)CC2)c(=O)c2cc(S(=O)(=O)N3CCCCC3)ccc21 | inactive: 76%
53 | COC(=O)C1=C(C)N(C(C)C)C(=O)C1(NC(=O)c1ccc(C(C)(C)C)cc1)C(F)(F)F (stereo not given) | inactive: 81%
54 | CC(=O)c1ccc(NC(=O)CCc2c(C)nn(-c3ccc4nnc(C)n4n3)c2C)cc1 | inactive: 84%
55 | CCc1ccc(NC(=O)Cn2cc(S(=O)(=O)c3ccc(F)cc3)c(=O)c3cc(OC)ccc32)cc1 | inactive: 83%
56 | CC(C)CC(C(=O)NCC1CCN(Cc2ccc(F)cc2)CC1)N1Cc2ccccc2C1=O (stereo not given) | inactive: 94%
57 | COc1ccc(NC(=O)C2CCC(CNS(=O)(=O)c3ccc(Br)s3)CC2)c(OC)c1 (stereo not given) | inactive: 74%
58 | CCOC(=O)C1(Cc2ccc(O)cc2)NC(c2ccco2)C2C(=O)N(c3ccccc3F)C(=O)C21 (stereo not given) | inactive: 107%
59 | COc1cc(NC(=O)N2CCC(CN3CCCCCC3)CC2)cc(OC)c1OC | inactive: 88%
60 | Cc1cccc(S(=O)(=O)c2cn(C)c3cc(N4CCN(c5ccccc5)CC4)c(F)cc3c2=O)c1 | inactive: 86%
61 | Cc1ccc(Cn2c(C)c3cnn(CC(=O)NCCc4ccc(Cl)cc4)c(=O)c3c2C)cc1 | inactive: 61%
62 | COc1cccc(CCNC(=O)c2cnc3sc(N4CCOCC4)nn3c2=O)c1 | inactive: 120%
63 | Cc1ccc(NC(=O)CSc2nc(-c3ccco3)nc3cc(=O)[nH]n23)cc1 | inactive: 83%
64 | CCOc1ccc(C(=O)Nc2ccc(-n3nncc3-c3ccc(OC)cc3)cc2)cc1 | inactive: 67%
65 | Cn1nnnc1SCCNCc1ccc(Cl)c(Cl)c1 | inactive: 56%
66 | COc1ccccc1NC(=O)C1=C(C)Nc2nc(-c3ccco3)nn2C1c1ccccc1F (stereo not given) | inactive: 73%
67 | CCCc1cc(=O)[nH]c(Nc2ccc(OCC)cc2)n1 | inactive: 58%
68 | Cc1ccc(-c2nc(N3CCCC(C)C3)c3ccccc3n2)cc1 (stereo not given) | active: -2%
69 | CCc1ccccc1NC(=O)CSc1nc2c(oc3ccccc32)c(=O)n1C | inactive: 86%

Row | SMILES | survival
70 | Cc1nn(C)c2c1c(-c1ccccc1)cc(=O)n2CC(=O)NC(C)C | inactive: 101%
71 | COc1cccc(CNC(=O)C2CCCN(c3nc4ccccc4n4cccc34)C2)c1 (stereo not given) | inactive: 75%
72 | Cc1ccc(CN2CCCn3nc(C(=O)NCCc4ccccc4Cl)cc3C2=O)cc1 | inactive: 70%
73 | COc1ccc(CCNCc2ccc3c(c2)n(C)c(=O)n3C)cc1OC | inactive: 103%
74 | Cc1ccc(CNC(=O)c2ccc3c(O)c(S(=O)(=O)c4ccc(Cl)cc4)c(=O)[nH]c3c2)cc1 | inactive: 84%
75 | CCOC(=O)c1c(S(=O)(=O)N2CCCC(C(=O)NCc3ccccc3OC)C2)c(C)n(C)c1C (stereo not given) | inactive: 82%
76 | CCc1nc(SC)ncc1C(=O)N1CCN(c2cc(C)ccc2C)CC1 | inactive: 87%
77 | Cc1ccc(NC(=O)c2ccc(=O)n(Cc3ccccc3C)c2)c(C)c1 | inactive: 71%
78 | Cc1ccc(CN2CCCn3nc(C(=O)NCCc4cccc(C)c4)cc3C2=O)cc1 | inactive: 83%
79 | CCCCN(CC)CCCNC(=O)Cn1ncc2c3ccccc3n(Cc3ccc(F)cc3)c2c1=O | inactive: 96%
80 | O=C(Nc1ccc2nc(-c3ccccc3)[nH]c2c1)c1ccco1 | active: 1%
81 | Cn1c(=O)c(=O)n(C)c2cc(S(=O)(=O)N3CCN(c4ccccc4)CC3)ccc21 | inactive: 92%
82 | CC(NC(=O)c1ccc2c(c1)sc1nc(-c3ccccc3)cn12)C12CC3CC(CC(C3)C1)C2 (stereo not given) | inactive: 73%
83 | COc1ccc(C)cc1NC(=O)c1cc(S(=O)(=O)N2CCN(c3cccc(C)c3C)CC2)ccc1F | inactive: 107%
84 | Clc1ccc(Nc2c(-c3ccccc3Cl)nc3ccc(Cl)cn23)cc1 | inactive: 45%
85 | Cc1nc(NCCCCCO)c2nnn(Cc3ccc(F)cc3)c2n1 | inactive: 91%
86 | Cc1ccc(C(=O)Nc2cccc(C(=O)OCc3cc(=O)n4nc(C5CC5)sc4n3)c2)cc1 | inactive: 81%
87 | O=C(CNC(=O)c1cccs1)c1ccc(F)cc1 | inactive: 77%
88 | CCCOc1ccc(C2CC(=O)Nc3c2c(=O)n(C)c(=O)n3C)cc1OC (stereo not given) | inactive: 104%
89 | COCC(C)Nc1ncnc2c1cnn2-c1ccc(C)c(C)c1 (stereo not given) | inactive: 80%
90 | COc1ccc(-n2nc(C(=O)NCc3ccc(F)cc3Cl)c3c4ccccc4n(C)c3c2=O)cc1Cl | inactive: 93%
